Article PMC10726135
This is one part of the list. At the low end of the ranking, values are background and their order means little. Measured with an extract: partners may take part in the binding.

These sequences were tested against T1, HNF4alpha8 (COS-7 nuclear extract) (UniProt P41235-5) (assay: protein-binding microarray). Details: COS-7 nuclear extract on double-stranded Agilent 4x180k PBM; binding buffer, salt, pH and temperature not given; high values mean tight binding; double strand, one strand shown; sequences stand for … in …GCCTAGGGAGATTAGAGTATCGGTCGA.
T1 sequence: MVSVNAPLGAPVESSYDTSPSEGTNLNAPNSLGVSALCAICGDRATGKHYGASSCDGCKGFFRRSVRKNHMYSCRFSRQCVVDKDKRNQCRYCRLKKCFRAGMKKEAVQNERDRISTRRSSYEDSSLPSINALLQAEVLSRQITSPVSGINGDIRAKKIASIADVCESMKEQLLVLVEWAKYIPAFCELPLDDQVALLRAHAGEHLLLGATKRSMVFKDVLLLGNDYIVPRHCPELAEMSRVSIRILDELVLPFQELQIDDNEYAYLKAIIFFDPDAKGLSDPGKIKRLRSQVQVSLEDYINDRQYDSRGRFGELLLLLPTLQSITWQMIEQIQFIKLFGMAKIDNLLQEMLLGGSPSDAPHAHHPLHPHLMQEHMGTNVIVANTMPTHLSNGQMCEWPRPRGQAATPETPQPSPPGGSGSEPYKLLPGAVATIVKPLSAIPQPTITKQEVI

**Q.** How did the binding signal (log2 normalized intensity) turn out when TGCCCAAAAGGACACAGGGTCTGTTTTCAA was run?
**A.** -0.222

**Q.** With ATGTCCCTACCACATACAGAATCCTTTACC as the sequence, how does the binding signal (log2 normalized intensity) read?
**A.** -1.16

**Q.** CTGGCTTGGAAAAAGCAGGCAACCAAGGGT was tested. Which binding signal (log2 normalized intensity) did it give?
**A.** -1.26

**Q.** For TATCTTCCAGACCTTCTTAAAAAGTGTTGA, which binding signal (log2 normalized intensity) is on record?
**A.** 1.15

**Q.** For TTTGCCTTAGGCCATTGTCCTTTGGGCTCA, which binding signal (log2 normalized intensity) is on record?
**A.** 2.13

**Q.** With TTTGTTAACAGCTTCTGTTCGCAGACCTGC as the sequence, how does the binding signal (log2 normalized intensity) read?
**A.** -1.29

**Q.** GTCCTCCACAGCGTTTTCCTCCAGCCTGTC was tested. Which binding signal (log2 normalized intensity) did it give?
**A.** -1.3

**Q.** With TCAGAAGGGAGGTAGTCGCCCTCCGTCGTG as the sequence, how does the binding signal (log2 normalized intensity) read?
**A.** 0.247

**Q.** Which binding signal (log2 normalized intensity) does the source give for TGTTGTCTAACATTTTTGACCTTCAGCATC here?
**A.** 5.92

**Q.** How did the binding signal (log2 normalized intensity) turn out when GTAAAGATCTTGAGGCCCACAAGGAATTTC was run?
**A.** -1.2

**Q.** How did the binding signal (log2 normalized intensity) turn out when CAGTGAGATTAGGAAGTGTGCACAAGTCCT was run?
**A.** -0.955

**Q.** ACTAAAACCTGCTGCAGGAGAGATGGTCAG was tested. Which binding signal (log2 normalized intensity) did it give?
**A.** 0.619

**Q.** With ACTGATAGTCTCCTATCAAGAAAATAGAAG as the sequence, how does the binding signal (log2 normalized intensity) read?
**A.** -1.34

**Q.** Which binding signal (log2 normalized intensity) does the source give for TATCATCTGATCCTTGTACCTGCGACTGAG here?
**A.** 1.7

**Q.** With GCTTTTGGAAGGACTTCGAATGGTATGCTA as the sequence, how does the binding signal (log2 normalized intensity) read?
**A.** -0.468

**Q.** How did the binding signal (log2 normalized intensity) turn out when AAGGATAAATACTTCTCCTCTTATCTTCAG was run?
**A.** -1.08

**Q.** With GCTGAAAGCTCCAAGTTTATAATCCTAGCT as the sequence, how does the binding signal (log2 normalized intensity) read?
**A.** -1.21

**Q.** Which binding signal (log2 normalized intensity) does the source give for TTGTTGTTAGAACAAAGTCCAAATTCCTAA here?
**A.** 5.05

**Q.** For CAGTTATCATTTCTACAGGGTCAAGCAAAC, which binding signal (log2 normalized intensity) is on record?
**A.** 2.04

**Q.** For AGGAGTGGACTGTTCAAGACCAAAGGTCAT, which binding signal (log2 normalized intensity) is on record?
**A.** 6.44

**Q.** How did the binding signal (log2 normalized intensity) turn out when TTCCCAAGTGCTAGCTTGGTCTGAACCTCA was run?
**A.** 1.42

**Q.** For ATGTCCTCAGTACACTGCCTCCTTCAAGGA, which binding signal (log2 normalized intensity) is on record?
**A.** -1.33

**Q.** For CCCAAGTGGCCATCTTCACGCAATACTAGC, which binding signal (log2 normalized intensity) is on record?
**A.** -1.23

**Q.** AAAGTCAACGGCTCTGCATATGCCAACAGG was tested. Which binding signal (log2 normalized intensity) did it give?
**A.** -0.804

**Q.** How did the binding signal (log2 normalized intensity) turn out when GCCACTGTGTGTGTGTGTGTGTCTGTGTGT was run?
**A.** 3.19

**Q.** For CACTGCACCTGCCTGAACAAGTCCAGTGAC, which binding signal (log2 normalized intensity) is on record?
**A.** -1.22

**Q.** Which binding signal (log2 normalized intensity) does the source give for AGAGCAAGGGTCAAGGGTCATTTGTTTTTA here?
**A.** 6.31

**Q.** Which binding signal (log2 normalized intensity) does the source give for AATGATTGCATAATCTGGCTCCAAAGTCTA here?
**A.** 2.98

**Q.** How did the binding signal (log2 normalized intensity) turn out when AGGTAAAAAGTCCAGCTGCCAGGGAGACAA was run?
**A.** -1.24

**Q.** How did the binding signal (log2 normalized intensity) turn out when GAGGTTATTTCACCCCAGCAAACAGGTCCT was run?
**A.** 1.83

**Q.** How did the binding signal (log2 normalized intensity) turn out when CACTTGTGCAGTTTTTCTGCCGAAGATATT was run?
**A.** 1.4

**Q.** Which binding signal (log2 normalized intensity) does the source give for AGTTTCAACTTAACCCCAGTTTAGCAATTT here?
**A.** 2.08

**Q.** CAAAGGTCATACCTGTCTAGGTGGAGGGAC was tested. Which binding signal (log2 normalized intensity) did it give?
**A.** 3.49

**Q.** Which binding signal (log2 normalized intensity) does the source give for TCTGCTGCCCTCTAGGGTTGCCCAGGGAGA here?
**A.** 0.182

**Q.** CCAGGGGAGGGTAAGAGTCCAACTTCTGCA was tested. Which binding signal (log2 normalized intensity) did it give?
**A.** 3.4

**Q.** How did the binding signal (log2 normalized intensity) turn out when GAGCTTCAGACGCCCTATGGCGTCCGCCTC was run?
**A.** -1.32

**Q.** Which binding signal (log2 normalized intensity) does the source give for TGCCTCTGAGCTAAGATAACCATCAAATCC here?
**A.** -1.3

**Q.** TCTTTCAGTGTTGACCTTTGAACATTTCTT was tested. Which binding signal (log2 normalized intensity) did it give?
**A.** 8.97

**Q.** For TTCTGCATGTCATAGTTGACATTCCATCAT, which binding signal (log2 normalized intensity) is on record?
**A.** 0.58

**Q.** CCCTGCCTGACCTGCCCTTTGTCCCTCCTG was tested. Which binding signal (log2 normalized intensity) did it give?
**A.** 5.06

**Q.** CTGGAATGTTTCAAGTGGCCTGATTTGACA was tested. Which binding signal (log2 normalized intensity) did it give?
**A.** 1.04

**Q.** CTGACGCAACAGAAAACTCAACTTCTAACT was tested. Which binding signal (log2 normalized intensity) did it give?
**A.** -1.47

**Q.** GGGAGTGCAGAGAGAGAGGGAGACAACCTT was tested. Which binding signal (log2 normalized intensity) did it give?
**A.** -1.37

**Q.** How did the binding signal (log2 normalized intensity) turn out when GCACAGGGAATGGCTCGTATGAATGTGGGA was run?
**A.** -1.34

**Q.** CCCTCAGGGTTTAGGCCTGGGACCTTTCCA was tested. Which binding signal (log2 normalized intensity) did it give?
**A.** 0.634

**Q.** For AAGAGATAAGGGTGGCCATCCATCCTGGCG, which binding signal (log2 normalized intensity) is on record?
**A.** -1.17

**Q.** Which binding signal (log2 normalized intensity) does the source give for CCTTTGAGAGTCAACACTGAAATAGCATAC here?
**A.** 0.103

**Q.** For TGAGTTCCACAGATAAGGAGGAGACAGACT, which binding signal (log2 normalized intensity) is on record?
**A.** -1.1

**Q.** With AGCAGACCCCTACTGGGGATGGACTTTGGC as the sequence, how does the binding signal (log2 normalized intensity) read?
**A.** 6.94

**Q.** Which binding signal (log2 normalized intensity) does the source give for CTTGGAGGACCTTGGGTTCATTTTACAATG here?
**A.** 2.08

**Q.** ACATTCCATGAGCTGGCCTCACTAAGTCCT was tested. Which binding signal (log2 normalized intensity) did it give?
**A.** -0.885

**Q.** How did the binding signal (log2 normalized intensity) turn out when TATAGAAAAGGAAAGTGAGGCCTGGCCGAG was run?
**A.** -1.18

**Q.** Which binding signal (log2 normalized intensity) does the source give for CAGAATGAACAGCTCTTCTTGCCAGCTGGC here?
**A.** -1.28

**Q.** CTGACCCCAAGTAATAGCCGTTTCTGTCCA was tested. Which binding signal (log2 normalized intensity) did it give?
**A.** 1.67

**Q.** TTGTAAAGGGTAATCTGCTTTTCTCGAAGC was tested. Which binding signal (log2 normalized intensity) did it give?
**A.** -1.14

**Q.** CCACGGAGCACATTCCATGCCCGGGTTGCT was tested. Which binding signal (log2 normalized intensity) did it give?
**A.** -1.29

**Q.** How did the binding signal (log2 normalized intensity) turn out when AGGGACTCAGGCACACAAAAAAAACCACTC was run?
**A.** -1.27

**Q.** CTATGTTTAATGTATAAACCCTGAGGGTCA was tested. Which binding signal (log2 normalized intensity) did it give?
**A.** 2.99

**Q.** For GAAATCATCTCCATGCCGACTCCGAACTAT, which binding signal (log2 normalized intensity) is on record?
**A.** 0.433

**Q.** How did the binding signal (log2 normalized intensity) turn out when GCCAAGCTCTGGGCTAGTCCCTGAGTATTA was run?
**A.** -0.741

**Q.** ATGGCTAGAAAGTCAGTGAAGGAGCTGACT was tested. Which binding signal (log2 normalized intensity) did it give?
**A.** -1.15

**Q.** TTTGCTTTTCCCTGCTGCTGGCTGGCGGCC was tested. Which binding signal (log2 normalized intensity) did it give?
**A.** -1.19

**Q.** How did the binding signal (log2 normalized intensity) turn out when GGGTTAGGCCTGGAACCTGTCTGACAGGAT was run?
**A.** -0.182

**Q.** Which binding signal (log2 normalized intensity) does the source give for CTTGTCACTTTCCCTTTGTCTCCAGGCCCT here?
**A.** -0.134

**Q.** With GAGGGGGGAGGGTCGGCAACGGTGATTACC as the sequence, how does the binding signal (log2 normalized intensity) read?
**A.** -1.16

**Q.** Which binding signal (log2 normalized intensity) does the source give for GGGCCTGCGAGGTTACAGGGTTCAACACGT here?
**A.** 2.76

**Q.** How did the binding signal (log2 normalized intensity) turn out when CCATGACTGCTCCCTCTGCTCCCCTGGCCT was run?
**A.** 2.19

**Q.** With ATGGGAACTTCTCACCTTCAGATGCCATGT as the sequence, how does the binding signal (log2 normalized intensity) read?
**A.** 1.15

**Q.** With TGACATTGGTGGAATCTGAACTTTTGGCTC as the sequence, how does the binding signal (log2 normalized intensity) read?
**A.** 2.67

**Q.** Which binding signal (log2 normalized intensity) does the source give for CTCTGCCCCTCATCGAGGCCATCCCAGTTA here?
**A.** 3.38

**Q.** For GCCAGGACAAAGGTCCTGTGGCCTGGGGAG, which binding signal (log2 normalized intensity) is on record?
**A.** 1.14

**Q.** Which binding signal (log2 normalized intensity) does the source give for GTATGGACTTTCTGATGTCAGAAAATGCAA here?
**A.** 0.883
